Results as given in the supplement of paper PMC8728848.
Some of the results follow.

Key:
Test in all cases: glycan array binding signal (z-score within array); higher = stronger binding
Details in all cases: glycan notation: IUPAC condensed, linker removed
[1] = biological target: Fuc(a1-2)Gal
How it was run: (§1)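 Glycan array data were curated from 3228 arrays in the Consortium for Functional Glycomics database and kept only where the protein sequence was available. Glycan names were converted to IUPAC-condensed notation, and columns mapping to the same glycan were averaged. The binding signal is a within-array Z-score, averaged across arrays of the same protein sequence at different concentrations or buffers and across linkers. Negative Z-scores can be read as non-binding.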

[2] = biological target: Fuc(a1-2)Gal(b1-3)GalNAc
How it was run: as §1

[3] = biological target: Fuc(a1-2)Gal(b1-3)GalNAc(a1-3)[Fuc(a1-2)]Gal(b1-4)Glc
How it was run: as §1

[4] = biological target: Fuc(a1-2)Gal(b1-3)GalNAc(a1-3)[Fuc(a1-2)]Gal(b1-4)GlcNAc
How it was run: as §1

[5] = biological target: Fuc(a1-2)Gal(b1-3)GalNAc(b1-3)Gal
How it was run: as §1

[6] = biological target: Fuc(a1-2)Gal(b1-3)GalNAc(b1-3)Gal(a1-4)Gal(b1-4)Glc
How it was run: as §1

[7] = biological target: Fuc(a1-2)Gal(b1-3)GalNAc(b1-4)[Neu5Ac(a2-3)]Gal(b1-4)Glc
How it was run: as §1

[8] = biological target: Fuc(a1-2)Gal(b1-3)GlcNAc
How it was run: as §1

[9] = biological target: Fuc(a1-2)Gal(b1-3)GlcNAc(b1-2)Man(a1-3)[Fuc(a1-2)Gal(b1-3)GlcNAc(b1-2)Man(a1-6)]Man(b1-4)GlcNAc(b1-4)GlcNAc
How it was run: as §1

[10] = biological target: Fuc(a1-2)Gal(b1-3)GlcNAc(b1-2)Man(a1-3)[Fuc(a1-2)Gal(b1-3)GlcNAc(b1-2)Man(a1-6)]Man(b1-4)GlcNAc(b1-4)[Fuc(a1-6)]GlcNAc
How it was run: as §1

[11] = biological target: Fuc(a1-2)Gal(b1-3)GlcNAc(b1-3)Gal(b1-4)Glc
How it was run: as §1

[12] = biological target: Fuc(a1-2)Gal(b1-3)GlcNAc(b1-3)GalNAc
How it was run: as §1

[13] = biological target: Fuc(a1-2)Gal(b1-3)GlcNAc(b1-3)[Fuc(a1-2)Gal(b1-3)GlcNAc(b1-6)]GalNAc
How it was run: as §1

[14] = biological target: Fuc(a1-2)Gal(b1-3)GlcNAc(b1-3)[Gal(b1-4)GlcNAc(b1-6)]Gal(b1-4)Glc
How it was run: as §1

[15] = biological target: Fuc(a1-2)Gal(b1-3)GlcNAc(b1-3)[Neu5Ac(a2-6)Gal(b1-4)GlcNAc(b1-6)]Gal(b1-4)Glc
How it was run: as §1

[16] = biological target: Fuc(a1-2)Gal(b1-3)GlcNAc6S
How it was run: as §1

[17] = biological target: Fuc(a1-2)Gal(b1-3)[Fuc(a1-4)]GlcNAc
How it was run: as §1

[18] = biological target: Fuc(a1-2)Gal(b1-3)[Fuc(a1-4)]GlcNAc(b1-2)Man(a1-3)[Fuc(a1-2)Gal(b1-3)[Fuc(a1-4)]GlcNAc(b1-2)Man(a1-3)]Man(b1-4)GlcNAc(b1-4)GlcNAc
How it was run: as §1

[19] = biological target: Fuc(a1-2)Gal(b1-3)[Fuc(a1-4)]GlcNAc(b1-2)Man(a1-3)[Fuc(a1-2)Gal(b1-3)[Fuc(a1-4)]GlcNAc(b1-2)Man(a1-6)]Man(b1-4)GlcNAc(b1-4)[Fuc(a1-6)]GlcNAc(b1-4)[Fuc(a1-6)]GlcNAc
How it was run: as §1

[20] = biological target: Fuc(a1-2)Gal(b1-3)[Fuc(a1-4)]GlcNAc(b1-3)[Fuc(a1-3)[Gal(b1-4)]GlcNAc(b1-6)]Gal(b1-4)Glc
How it was run: as §1

[21] = biological target: Fuc(a1-2)Gal(b1-3)[Fuc(a1-4)]GlcNAc(b1-3)[Gal(b1-4)GlcNAc(b1-6)]Gal(b1-4)Glc
How it was run: as §1

[22] = biological target: Fuc(a1-2)Gal(b1-4)Glc
How it was run: as §1

[23] = biological target: Fuc(a1-2)Gal(b1-4)Glc6S
How it was run: as §1

[24] = biological target: Fuc(a1-2)Gal(b1-4)GlcNAc
How it was run: as §1

[25] = biological target: Fuc(a1-2)Gal(b1-4)GlcNAc(b1-2)Man
How it was run: as §1

[26] = biological target: Fuc(a1-2)Gal(b1-4)GlcNAc(b1-2)Man(a1-3)[Fuc(a1-2)Gal(b1-4)GlcNAc(b1-2)Man(a1-6)]Man(b1-4)GlcNAc(b1-4)GlcNAc
How it was run: as §1

[27] = biological target: Fuc(a1-2)Gal(b1-4)GlcNAc(b1-2)Man(a1-3)[Fuc(a1-2)Gal(b1-4)GlcNAc(b1-2)Man(a1-6)]Man(b1-4)GlcNAc(b1-4)[Fuc(a1-6)]GlcNAc
How it was run: as §1

[28] = biological target: Fuc(a1-2)Gal(b1-4)GlcNAc(b1-2)[Fuc(a1-2)Gal(b1-4)GlcNAc(b1-4)]Man(a1-3)[Fuc(a1-2)Gal(b1-4)GlcNAc(b1-2)Man(a1-6)]Man(b1-4)GlcNAc(b1-4)GlcNAc
How it was run: as §1

[29] = biological target: Fuc(a1-2)Gal(b1-4)GlcNAc(b1-3)Gal(b1-4)GlcNAc
How it was run: as §1

[30] = biological target: Fuc(a1-2)Gal(b1-4)GlcNAc(b1-3)Gal(b1-4)GlcNAc(b1-2)Man(a1-3)[Fuc(a1-2)Gal(b1-4)GlcNAc(b1-3)Gal(b1-4)GlcNAc(b1-2)Man(a1-6)]Man(b1-4)GlcNAc(b1-4)GlcNAc
How it was run: as §1

[31] = biological target: Fuc(a1-2)Gal(b1-4)GlcNAc(b1-3)Gal(b1-4)GlcNAc(b1-3)Gal(b1-4)GlcNAc
How it was run: as §1

[32] = biological target: Fuc(a1-2)Gal(b1-4)GlcNAc(b1-3)GalNAc
How it was run: as §1

[33] = biological target: Fuc(a1-2)Gal(b1-4)GlcNAc(b1-3)[Fuc(a1-2)Gal(b1-4)GlcNAc(b1-6)]GalNAc
How it was run: as §1

[34] = biological target: Fuc(a1-2)Gal(b1-4)GlcNAc(b1-3)[Fuc(a1-3)[Gal(b1-4)]GlcNAc(b1-6)]Gal(b1-4)Glc
How it was run: as §1

[35] = biological target: Fuc(a1-2)Gal(b1-4)GlcNAc(b1-6)GalNAc
How it was run: as §1

[36] = biological target: Fuc(a1-2)Gal(b1-4)GlcNAc6S
How it was run: as §1

[37] = biological target: Fuc(a1-2)Gal(b1-4)[Fuc(a1-3)]GlcNAc
How it was run: as §1

B1: Fm1D (Escherichia coli) (protein)
chain: FSCNVDGGSSIGAGTTSVYVNLDPVIQPGQNLVVDLSQHISCWNDYGGWYDTDHINLVQGSAFAGSLQSYKGSLYWNNVTYPFPLTTNTNVLDIGDKTPMPLPLKLYITPVGAAGGVVIKAGEVIARIHMYKIATLGSGNPRNFTWNIISNNSVVMPTHHHHHH
glycan array binding signal (z-score) [1]: -0.141 | glycan array binding signal (z-score) [2]: -0.133 | glycan array binding signal (z-score) [3]: -0.128 | glycan array binding signal (z-score) [4]: -0.123 | glycan array binding signal (z-score) [5]: -0.135 | glycan array binding signal (z-score) [6]: -0.14 | glycan array binding signal (z-score) [7]: -0.146 | glycan array binding signal (z-score) [8]: -0.142 | glycan array binding signal (z-score) [9]: -0.142 | glycan array binding signal (z-score) [10]: -0.131 | glycan array binding signal (z-score) [11]: -0.147 | glycan array binding signal (z-score) [12]: -0.141 | glycan array binding signal (z-score) [13]: -0.144 | glycan array binding signal (z-score) [14]: -0.148 | glycan array binding signal (z-score) [15]: -0.146 | glycan array binding signal (z-score) [16]: -0.136 | glycan array binding signal (z-score) [17]: -0.145 | glycan array binding signal (z-score) [18]: -0.136 | glycan array binding signal (z-score) [19]: -0.141 | glycan array binding signal (z-score) [20]: -0.146 | glycan array binding signal (z-score) [21]: -0.149 | glycan array binding signal (z-score) [22]: -0.141 | glycan array binding signal (z-score) [23]: -0.14 | glycan array binding signal (z-score) [24]: -0.145 | glycan array binding signal (z-score) [25]: -0.138 | glycan array binding signal (z-score) [26]: -0.14 | glycan array binding signal (z-score) [27]: -0.139 | glycan array binding signal (z-score) [28]: -0.135 | glycan array binding signal (z-score) [29]: -0.144 | glycan array binding signal (z-score) [30]: -0.141 | glycan array binding signal (z-score) [31]: -0.144 | glycan array binding signal (z-score) [32]: -0.145 | glycan array binding signal (z-score) [33]: -0.141 | glycan array binding signal (z-score) [34]: -0.141 | glycan array binding signal (z-score) [35]: -0.14 | glycan array binding signal (z-score) [36]: -0.139 | glycan array binding signal (z-score) [37]: -0.147
